Results published in PubChem BioAssay AID485294 (National Center for Advancing Translational Sciences (NCATS), 2010).
Out of some 370,000 compounds screened, about 150 (0.041%) were called active. The shares of active, inactive and inconclusive entries below differ from those in the screen. The call rests on the fitted dose curve; in most records, active means well fitted inhibition curve with a large enough effect; inconclusive means small, poorly fitted or top-dose-only effect; inactive means flat fitted curve, though single readings scatter. No potency is given beside an inconclusive call; the fits are too rough.

What follows are compounds tested against Beta-lactamase (Escherichia coli (strain K12)) (UniProt P00811) (assay: qHTS Inhibitors of AmpC Beta-Lactamase (assay with detergent)). Conditions: AmpC hydrolysis of nitrocefin, absorbance 480 nm, 0.01% Triton; activity change, negative = inhibition: at 114 µM (top of the series).
In short: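 AmpC (5.3 nM in the dispensed reagent) in 20 mM phosphate pH 7.0 with 0.01% (detergent screen) or 0.0001% Triton X-100 was preincubated with compounds for 15 min at room temperature. Nitrocefin was then added from an 800 uM solution, and hydrolysis was followed at 480 nm.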
Further: nearly all actives have a fitted effect of over 25% in size.
Potency means the concentration at half of the fitted maximal effect; tags describe the fitted curve by direction and shape.
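Wherever activity change, negative = inhibition is given: 0% = no-compound wells and -100% = no-enzyme wells.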

UniProt P00811, sequence (P00811 whole entry, looked up): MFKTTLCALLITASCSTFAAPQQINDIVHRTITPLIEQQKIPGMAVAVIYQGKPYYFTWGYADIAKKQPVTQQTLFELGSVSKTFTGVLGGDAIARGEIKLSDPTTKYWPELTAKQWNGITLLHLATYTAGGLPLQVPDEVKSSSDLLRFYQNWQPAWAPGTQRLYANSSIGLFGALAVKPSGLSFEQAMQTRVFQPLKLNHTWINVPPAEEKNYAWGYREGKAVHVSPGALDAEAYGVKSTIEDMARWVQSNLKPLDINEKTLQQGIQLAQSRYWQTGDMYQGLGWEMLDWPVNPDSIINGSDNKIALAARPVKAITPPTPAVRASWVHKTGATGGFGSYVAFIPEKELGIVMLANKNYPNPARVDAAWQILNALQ

SMILES	Potency	activity change, negative = inhibition
CCOC(=O)C1Cn2c(nc3c(c2=O)C(C)(CC)Cc2ccccc2-3)S1 (configuration not stated)	inconclusive [inhibitor, single point]	–
CCOc1ccc(N(C(C)C(=O)Nc2ccc(OC)cc2)S(C)(=O)=O)cc1 (configuration not stated)	inconclusive [inhibitor, full curve, poor fit]	–
COc1ccc(NC(=O)c2ccc(Cl)nc2)cc1S(=O)(=O)N1CCOCC1	inconclusive [inhibitor, full curve, poor fit]	–
Cc1[nH]c2ccccc2c1N=Nc1ccc(F)cc1	–	inactive: 10.3%
Cc1ccc(C)c(-n2c(-c3ccncc3)n[nH]c2=S)c1	–	inactive: 2.87%
COc1ccc(C(=O)COC(=O)CCn2nnc(-c3cccc(O)c3OC)n2)cc1	–	inactive: -1.54%
COc1cc(C(c2nnnn2C(C)(C)C)N2CCN(c3nc4ccccc4s3)CC2)ccc1O (configuration not stated)	inconclusive [inhibitor, full curve]	–
COc1ccc(CNC(=O)CC(C)n2nc(C)cc2C)cc1 (configuration not stated)	–	inactive: 26.1%
Cn1cccc1/C=C1\Cc2ccccc2C1=O	inconclusive [inhibitor, single point]	–
O=C(Nc1cccc2cccnc12)c1ccc(Br)cc1Br	inconclusive [inhibitor, partial curve, poor fit]	–
COc1cc2c(c(OC)c1)C(c1ccncc1)CC(=O)N2 (configuration not stated)	inconclusive [inhibitor, full curve]	–
Cc1ccc(Nc2nc(CSc3nnc(-c4cccs4)o3)cs2)cc1	inconclusive [inhibitor, partial curve, poor fit]	–
CC/C(C)=N/NC(=S)NCc1ccco1	inconclusive [inhibitor, partial curve]	–
OC(Cn1c2ccccc2c2ccccc21)C[n+]1cccc2ccccc21 (configuration not stated)	inconclusive [inhibitor, partial curve, poor fit]	–
CCOCCCNC(=O)CNC(=S)N(Cc1ccccc1F)C1CCCCC1	inconclusive [inhibitor, single point]	–
CC(=O)OCC1(C)CN(c2ccccc2)NC1=O (configuration not stated)	–	inactive: -0.241%
Cn1c(N)c(C(=O)COC(=O)c2ccc(S(=O)(=O)N3CCCCC3)cc2)c(=O)n(C)c1=O	inconclusive [inhibitor, full curve]	–
COc1cccc(-c2noc(CCC(=O)Nc3cccnc3)n2)c1	inconclusive [inhibitor, full curve, poor fit]	–
O=C(O)CCN1C(=O)/C(=C\c2cccc(Oc3ccccc3)c2)SC1=S	–	inactive: -2.55%
CC(C)CCNC(=O)C1CCN(c2nnc(-n3cccc3)s2)CC1	inconclusive [inhibitor, full curve, poor fit]	–
CCc1cc(C(=O)OC)c(NC(=O)CC2SC(=NC)N(C)C2=O)s1 (configuration not stated)	–	inactive: -7.47%
Cc1nc2sc(C(N)=O)c(N)c2c(C)c1CC(=O)c1ccccc1	inconclusive [inhibitor, full curve, poor fit]	–
Nc1cc(C(=O)O)ccc1N1CCCCCC1	inconclusive [inhibitor, full curve, poor fit]	–

SMILES	Potency	activity change, negative = inhibition
CN(CCCNC(=O)c1cc2c(=O)[nH]c3ccccc3c2n1C)Cc1ccccc1	inconclusive [inhibitor, full curve, poor fit]	–
Cc1ncc(CNC(=O)N(CCCl)N=O)c(N)n1	inconclusive [inhibitor, full curve, poor fit]	–
O=[N+]([O-])c1ccc2nc(C(O)C(O)c3nc4ccc([N+](=O)[O-])cc4[nH]3)[nH]c2c1 (configuration not stated)	inconclusive [inhibitor, partial curve, poor fit]	–
CCOC(=O)c1cnc2c(C)cc(C)cc2c1NCCCN1CCOCC1	inconclusive [inhibitor, partial curve, poor fit]	–
Cc1cc(=O)oc(C)c1C(=O)NCc1ccco1	–	inactive: -0.166%
CN1CCN(C(=O)c2ccc(C(C)(C)C)cc2)CC1	inconclusive [inhibitor, partial curve]	–
O=C(Nc1cccc(C(=O)Nc2cccc(Br)c2)c1)c1ccccc1	inconclusive [inhibitor, partial curve, poor fit]	–
COCc1nnc(NC(=O)c2ccc(S(=O)(=O)N(CC(C)C)CC(C)C)cc2)o1	inconclusive [inhibitor, full curve]	–
CCOc1ccc(N)c(SSc2cc(OCC)ccc2N)c1	inconclusive [inhibitor, full curve, poor fit]	–
Cc1cccn2cc(-c3cccc(S(=O)(=O)N4CCCCC4)c3)nc12	inconclusive [inhibitor, full curve, poor fit]	–
CC(=O)N(C)c1ccc(NC(=S)Nc2ccccc2)cc1	inconclusive [inhibitor, full curve, poor fit]	–
O=C(O)c1cccc(NC2=C(N3CCOCC3)C(=O)c3ccccc3C2=O)c1	–	inactive: -1.16%
CC(C(=O)NC1CCCC1)N(C(=O)CS(=O)CC(=O)Nc1ccc(F)cc1)c1ccc2c(c1)OCCO2 (configuration not stated)	inconclusive [inhibitor, full curve, poor fit]	–
CCOc1ccc(C2=Nn3cnnc3SC2)cc1	inconclusive [inhibitor, partial curve, poor fit]	–
Cc1sc2ncnc(N[C@@H](CCC(=O)O)C(=O)O)c2c1C	inconclusive [inhibitor, partial curve]	–
Cc1ccc([N+](=O)[O-])cc1N=C(c1cccc(Br)c1)N1CCOCC1	inconclusive [inhibitor, partial curve]	–
Cc1ccc2c(c1)C1CN(C)CCC1N2C(=O)Cc1cccs1 (configuration not stated)	–	inactive: -11.9%
COc1ccc(CCNC2CC(=O)N(CCc3ccc(OC)c(OC)c3)C2=O)cc1 (configuration not stated)	–	inactive: 2.89%
CC1CCC(C(=O)NC(C(=O)NCCc2ccc(S(N)(=O)=O)cc2)C(C)C)CC1 (configuration not stated)	–	inactive: 3.64%
Cc1ccc(NC(=O)CN(C)C(=O)c2cc3ccccc3o2)cc1	inconclusive [inhibitor, single point]	–
CCCc1cc(=O)oc2cc(C)cc(OCC(=O)N[C@@H](CSCc3ccccc3)C(=O)O)c12	inconclusive [inhibitor, full curve, poor fit]	–
COc1cc(NC(=O)c2ccco2)c(OC)cc1NC(=O)CCC(=O)Nc1cc(C)ccc1C	inconclusive [inhibitor, partial curve]	–
NC(=O)c1c(NC(=O)C(=O)NCCCN2CCOCC2)sc2c1CCCC2	–	inactive: -5.77%

SMILES	Potency	activity change, negative = inhibition
CCOC(=O)COc1ccc(S(=O)(=O)NCc2cccnc2)cc1	inconclusive [inhibitor, single point]	–
CC(=O)CC(c1ccccc1[N+](=O)[O-])c1c(O)c2ccccc2oc1=O (configuration not stated)	–	inactive: -4.24%
CCOC(=O)c1cccc(NC(=O)CCS(=O)(=O)c2cccs2)c1	inconclusive [inhibitor, full curve, poor fit]	–
O=C1Nc2ccccc2C12NCCc1c2[nH]c2ccccc12 (configuration not stated)	–	inactive: 2.13%
Cc1ccc(S(=O)(=O)N(C)c2ccc(C(=O)Nc3ccccn3)cc2)cc1	–	inactive: -9.35%
CC1(C)C(c2cccs2)=NC(c2ccccc2)N1O (configuration not stated)	inconclusive [inhibitor, full curve, poor fit]	–
Cc1ccc(S(=O)(=O)N(C)CCCC(=O)Nc2ccncc2)cc1	–	inactive: -3.07%
CN(C)CC(O)COc1ccc(-c2ccc(C#N)cc2)cc1 (configuration not stated)	inconclusive [inhibitor, single point]	–
Nc1c(N(CCC2=CCCCC2)C(=O)c2ccccc2F)c(=O)[nH]c(=O)n1Cc1ccccc1	inconclusive [inhibitor, partial curve, poor fit]	–
Cc1ccc(NC(=O)COc2ccc(/C=C3/SC(=Nc4ccccc4)N(Cc4cccnc4)C3=O)cc2)cc1	inconclusive [inhibitor, full curve, poor fit]	–
O=C(CSc1nnc2n(C3CCCC3)c(=O)c3ccccc3n12)N1CCCCCC1	inconclusive [inhibitor, full curve, poor fit]	–
Cc1nn(Cc2ccccc2Cl)c(C)c1NC(=O)c1nc2ncccn2n1	–	inactive: -3.71%
N/C(=N\OC(=O)c1ccccc1F)c1ccc([N+](=O)[O-])cc1	inconclusive [inhibitor, partial curve, poor fit]	–
CC1CCCCN1C(=O)CSc1nnc(-c2cccs2)o1 (configuration not stated)	–	inactive: -6.59%
O=C1CN(C(=O)NCC(=O)N[C@@H](C(=O)O)c2ccccc2)c2ccccc2N1	inconclusive [inhibitor, partial curve]	–
COc1cccc(NC(=O)CN(C)C(=O)Cc2cccc3ccccc23)c1	inconclusive [inhibitor, full curve, poor fit]	–
O=C(CSCC(=O)Nc1nc(-c2ccc3c(c2)OCO3)cs1)Nc1nccs1	–	inactive: -0.0517%
CCC(C(=O)N1CCc2cc(OC)c(OC)cc2C1)c1ccccc1 (configuration not stated)	inconclusive [inhibitor, partial curve, poor fit]	–
Cc1ccc2c(c1)CCCN2CC(=O)N(C)c1c(N)n(Cc2ccccc2)c(=O)[nH]c1=O	–	inactive: -4.82%
COc1ccccc1C(=O)N/C(=C\c1ccccc1)C(=O)NCc1ccco1	inconclusive [inhibitor, single point]	–
Cc1ccc(NC(=O)C2=CCN(S(=O)(=O)c3ccc(F)cc3)CC2)cc1	inconclusive [inhibitor, partial curve, poor fit]	–
